Laboratory results from PubChem BioAssay AID1768 (National Center for Advancing Translational Sciences (NCATS), 2009).
The whole screen tested about 270,000 compounds, of which about 620 (0.23%) were called active. Inconclusive results, whose numbers are uncertain, are shown with a selection of clear calls. The call rests on the fitted dose curve; in most records, active means well fitted inhibition curve with a large enough effect in the polarisation, with a control signal flat (not every such curve was filed as active); inconclusive means small, poorly fitted or top-dose-only effect, or effect the other way, or a change in a side signal; inactive means no such curve, though single readings can be large or run the other way; the % refers to the polarisation. Potencies beside an inconclusive call are fits to weak or partial responses and may not hold up. A note “side channel” means that the fit belongs to a control or component signal, not to the main read-out.

molecular target: Menin (Homo sapiens) (UniProt O00255); experiment: qHTS Assay for Inhibitors Targeting the Menin-MLL Interaction in MLL Related Leukemias: Competition With Texas Red Labeled MLL-derived Mutant Peptide; conditions: fluorescence polarization; FP activity change, negative = inhibition: at 61.6 µM (top of the series); on FP activity change, negative = inhibition: % of control where 0% means no effect
UniProt O00255, sequence (O00255 whole entry, looked up): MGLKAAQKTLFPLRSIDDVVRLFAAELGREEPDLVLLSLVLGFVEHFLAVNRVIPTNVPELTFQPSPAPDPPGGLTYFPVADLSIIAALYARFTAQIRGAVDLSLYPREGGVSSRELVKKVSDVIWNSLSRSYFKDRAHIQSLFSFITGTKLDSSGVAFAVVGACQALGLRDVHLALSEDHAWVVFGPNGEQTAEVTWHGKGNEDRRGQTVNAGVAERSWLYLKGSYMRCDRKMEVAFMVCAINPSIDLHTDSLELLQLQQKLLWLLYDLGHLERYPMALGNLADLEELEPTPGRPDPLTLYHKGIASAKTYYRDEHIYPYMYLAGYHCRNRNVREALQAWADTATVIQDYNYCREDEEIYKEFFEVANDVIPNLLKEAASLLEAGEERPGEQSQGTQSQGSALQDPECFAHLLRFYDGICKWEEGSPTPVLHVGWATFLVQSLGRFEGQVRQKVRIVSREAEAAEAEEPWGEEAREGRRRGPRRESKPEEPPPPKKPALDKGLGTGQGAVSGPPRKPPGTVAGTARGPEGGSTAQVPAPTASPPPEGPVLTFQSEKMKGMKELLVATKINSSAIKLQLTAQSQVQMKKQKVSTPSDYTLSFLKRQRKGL
Potency means the concentration at half of the fitted maximal effect; tags describe the fitted curve by direction and shape or compound fluorescence and quenching.

Structure (SMILES) | Potency | FP activity change, negative = inhibition
CCC(=O)Nc1ccc(-c2nnc(SCc3ccc(C(=O)Nc4nccs4)cc3)n2CC)cc1 | inconclusive: 22.4 µM [inhibitor, partial curve] | –
Cc1ccc(NC2CC(=O)N(c3ccc(N4CCCCC4)cc3)C2=O)cc1 (centres undefined) | inconclusive: 31.6 µM [quencher, side channel, single point] | –
Cc1cc(C)c(-c2cc(C(F)(F)F)no2)c(=O)[nH]1 | – | inactive: 39.5%
CN(c1ccc(C(=O)N/N=C/c2cccc([N+](=O)[O-])c2)cc1)S(=O)(=O)c1ccccc1 | inconclusive: 12.6 µM [quencher, side channel, partial curve] | –
COc1ccc(-c2cc(-c3ccc(N)cc3)nc(N)c2C#N)cc1OC | inconclusive: 25.1 µM [quencher, side channel, partial curve] | –
O=C(O)c1ccc(NC(=S)NC(=O)C(c2ccccc2)c2ccccc2)cc1 | inconclusive: 15.8 µM [quencher, side channel, partial curve] | –
CCN(CC)c1ccc(/C=C2\CCC(/C=C(\C#N)C(=O)Nc3ccccc3F)=C2N2CCOCC2)cc1 | inconclusive: 1.26 µM [fluorescent, side channel, full curve] | –
CNc1oc(-c2ccc(C)cc2)nc1P(=O)(c1ccccc1)c1ccccc1 | inconclusive: 4.47 µM [inhibitor, single point] | –
COc1ccc(-c2cc(=O)oc3c(C)c(OC(C)C(C)=O)ccc23)cc1 (centres undefined) | inconclusive: 35.5 µM [fluorescent, side channel, single point] | –
O=C(CC(NC(=O)c1ccccc1)c1ccccc1)Nc1cccc2ccccc12 (centres undefined) | inconclusive: 14.1 µM [inhibitor, partial curve] | –
Fc1ccc(-[n+]2nc(Nc3ccccc3)sc2-c2c(Cl)cccc2Cl)cc1 | inconclusive: 11.2 µM [inhibitor, partial curve] | –
COc1ccc(/C(C)=N/NC(=O)Cc2ccc(Cl)cc2)cc1 | inconclusive: 39.8 µM [inhibitor, single point] | –
CC(C)(C)C(=O)NC(=S)NNC(=O)c1sc2ccccc2c1Cl | inconclusive: 12.6 µM [quencher, side channel, partial curve] | –
CCN(CC)CCN(C(=O)c1ccc(C(=O)c2ccccc2)cc1)c1nc2cc3c(cc2s1)OCO3 | inconclusive: 11.2 µM [fluorescent, side channel, partial curve] | –
CCc1nnc(NC(=O)c2ccc(S(=O)(=O)N(CC)Cc3ccccc3)cc2)o1 | inconclusive: 28.2 µM [quencher, side channel, single point] | –
NS(=O)(=O)c1ccc(NC(=O)c2ccc3c(c2)OCO3)cc1 | inconclusive: 39.8 µM [fluorescent, side channel, single point] | –
CCOC(=O)C1=NN(c2ccccc2)C(=O)/C1=C\c1ccc(N(C)C)cc1 | inconclusive: 20 µM [quencher, side channel, partial curve] | –
CC1CCCN(C(=O)/C(=C/c2ccco2)NC(=O)c2ccccc2)C1 (centres undefined) | inconclusive: 10 µM [inhibitor, partial curve] | –
CCN(CCCNC(=O)CNC(=O)Cn1cnc2ccccc2c1=O)c1ccccc1 | inconclusive: 31.6 µM [inhibitor, single point] | –
CCc1ccc(OCC(=O)N2CCN(c3ccccc3F)CC2)cc1 | inconclusive: 28.2 µM [fluorescent, side channel, single point] | –

Structure (SMILES) | Potency | FP activity change, negative = inhibition
COc1ccc(CNC(=O)CN2C(=O)CCSc3ccc(S(=O)(=O)N4CCCC4)cc32)cc1 | inconclusive: 35.5 µM [inhibitor, single point] | –
COc1ccc(C2/C=C\CN(C(=O)c3ccc(C)cc3)C(Cc3ccccc3)C(=O)N2Cc2ccc(F)cc2)cc1 (centres undefined) | – | inactive: 30.8%
Cc1csc(Sc2ccc(C(=O)OCC(=O)Nc3ccc(F)cc3[N+](=O)[O-])cc2[N+](=O)[O-])n1 | inconclusive: 14.1 µM [quencher, side channel, partial curve] | –
CCOC(=O)CSc1c(-c2cccs2)[nH]c2ccccc12 | inconclusive: 14.1 µM [quencher, side channel, partial curve] | –
CCCCCCCNC1=CC(=O)CC(c2ccccc2)C1 (centres undefined) | inconclusive: 22.4 µM [fluorescent, side channel, single point] | –
CCCCC/C=C\C/C=C\CCCCCCCCCC(=O)NCCCC(=O)O | – | inactive: 6.39%
COc1ccccc1N1CCN(CC(O)COc2ccc3c(C)cc(=O)oc3c2)CC1 (centres undefined) | – | inactive: 4.27%
Cc1ccc(NC(=O)CSc2n[nH]c(C)c2[N+](=O)[O-])cc1C | inconclusive: 39.8 µM [quencher, side channel, single point] | –
COc1cccc(Sc2ccccc2/C=N/NC(N)=O)c1 | inconclusive: 25.1 µM [fluorescent, side channel, partial curve] | –
CN(C)S(=O)(=O)n1cc(/C=C(\NC(=O)c2ccccc2)C(=O)N2CCOCC2)c2ccccc21 | inconclusive: 28.2 µM [fluorescent, side channel, single point] | –
COc1ccc(C(=O)O/N=C(\N)c2ccccc2)cc1OC | – | inactive: -3.37%
CCOC(=O)c1sc(NC(=O)c2ccc(C)s2)cc1C | inconclusive: 14.1 µM [quencher, side channel, partial curve] | –
O=C(CN1C(=O)NC2(CCCC2)C1=O)Nc1cccc(C(F)(F)F)c1 | inconclusive: 6.31 µM [quencher, side channel, single point] | –
O=C1ON=C(c2ccccc2)/C1=C/c1ccc(O)c(O)c1 | – | inactive: 30.2%
O=C(Nc1ccc(Br)cc1)c1cccc(S(=O)(=O)Nc2ccc(Br)cc2)c1 | inconclusive: 2.24 µM [quencher, side channel, full curve] | –
Cc1cc(C)c(C)c(S(=O)(=O)N2CCN(CC(=O)NC(=O)NCc3ccccc3)CC2)c1C | inconclusive: 3.55 µM [inhibitor, single point] | –
COc1ccc([N+](=O)[O-])cc1C1NN=C(c2cccc3ccccc23)S1 (centres undefined) | inconclusive: 2.82 µM [quencher, side channel, full curve, poor fit] | –
COc1ccc(N/N=C(/C)c2cnnc(-c3ccccc3)n2)cc1 | inconclusive: 8.91 µM [quencher, side channel, partial curve] | –
COc1ccc(OC)c(N(CC(=O)N2CCCC2)S(=O)(=O)c2ccc(OC)c(OC)c2)c1 | inconclusive: 1.26 µM [inhibitor, partial curve] | –
CC(=O)Nc1ccc(NC(=O)CN(c2ccccc2Cl)S(C)(=O)=O)cc1 | inconclusive: 6.31 µM [inhibitor, single point] | –

Structure (SMILES) | Potency | FP activity change, negative = inhibition
CCOC(=O)c1c(-c2ccco2)csc1N | inconclusive: 22.4 µM [quencher, side channel, single point] | –
CCn1c2c(c3cc(OCC(C)C)ccc31)CCCC2=O | – | inactive: -16.6%
CCNc1ncc2nc(-c3ccc(F)cc3)c(=O)n(CCOC)c2n1 | – | inactive: 0.556%
COC(=O)C(Cc1ccccc1)NCC(=O)Nc1cccc(Cl)c1C (centres undefined) | inconclusive: 31.6 µM [fluorescent, side channel, partial curve] | –
CCN(CC)CCOC(=O)C(Cc1cccc2ccccc12)CC1CCCO1 (centres undefined) | inconclusive: 7.08 µM [inhibitor, full curve] | –
Cc1ccc(/C=N/Nc2ccc(F)cc2)s1 | inconclusive: 15.8 µM [quencher, side channel, partial curve] | –
CCNC(=S)N(Cc1ccccc1)Cc1nc2ccccc2c(=O)[nH]1 | inconclusive: 8.91 µM [inhibitor, partial curve] | –
N/C(=N\OC(=O)c1cccc(Br)c1)c1ccc([N+](=O)[O-])cc1 | inconclusive: 22.4 µM [quencher, side channel, single point] | –
COc1ccc(CNc2ccc(-c3ccccc3OC)nn2)cc1 | inconclusive: 3.16 µM [inhibitor, full curve] | –
Cc1ccc2nc(CSc3nc(C)cc(C)c3C#N)[nH]c2c1 | inconclusive: 39.8 µM [quencher, side channel, single point] | –
Cc1ccc(Cc2c(C)nc3nc(SCC(=O)NCCCN4CCCCCC4)nn3c2C)cc1 | inconclusive: 12.6 µM [inhibitor, partial curve] | –
COc1ccc(-c2noc(CCCC(=O)Nc3ccc(C(N)=O)cc3)n2)cc1 | inconclusive: 20 µM [inhibitor, single point] | –
CCOc1ccc2c(c1)C(N(CCN1CCOCC1)C(=O)Nc1ccc(OC)cc1OC)CC(C)(C)O2 (centres undefined) | inconclusive: 15.8 µM [fluorescent, side channel, partial curve] | –
Cn1c(=O)c2c(nc(CN3CCOCC3)n2CC(O)CO)n(C)c1=O (centres undefined) | inconclusive: 10 µM [inhibitor, partial curve] | –
COc1cc(/C=C/C(=O)OCC(=O)NC(=O)NC(C)C)cc(S(=O)(=O)N2CCc3ccccc32)c1OC | – | inactive: 1.28%
CCOc1ccc(Br)cc1S(=O)(=O)Nc1ccc(C(=O)Nc2ccccc2OC)cc1 | inconclusive: 31.6 µM [inhibitor, single point] | –
O=C(O)Cc1ccc(NC(=O)c2cccs2)cc1 | – | inactive: 34.4%
Cc1cc2c(cc1C)CSC(c1ccccc1OC(=O)C(C)C)SC2 | inconclusive: 5.01 µM [inhibitor, full curve] | –
COc1ccccc1N1C(=O)c2ccc(C(=O)Nc3nccs3)cc2C1=O | inconclusive: 31.6 µM [quencher, side channel, single point] | –
